From article PMC10668032 come the findings set out here.

The other results are listed elsewhere or left out. At the low end of the ranking the order means little.

For the test, the target named is SIX1 homeodomain (reference allele) (UniProt Q15475). Briefly: universal protein binding microarray. The following applies: Universal all-10-mer PBM (8x60K, AMADID 030236), 300 nM GST-tagged protein, Alexa Fluor 488 anti-GST; buffer, salt, pH and temperature not stated; high values mean tight binding; most listed sequences are background and not binding sites; double strand, one strand shown.
Consider AACATCGA, for which the binding signal was 0.0119 E-score.
For the sequence GTTACAGA, the binding signal was -0.162 E-score.
The same measure for ACACAAAC: -0.172 E-score; for CTCTTCAA: -0.232 E-score; for CATGCTAA: -0.146 E-score.
As to AAGCTTGT, the binding signal is -0.233 E-score.
As to AGGGATAA, the binding signal came out at 0.292 E-score.
As for ATTGATCC, the figure is 0.406 E-score; as for CATCTTTA, -0.0969 E-score; as for CTCTAGTC, -0.278 E-score.
With GATAGCGC, the binding signal turned out to be 0.19 E-score.
As for GAAAACAC, the figure is -0.117 E-score; as for TATCCACA, 0.326 E-score.
ATTATTTA: the binding signal was 0.089 E-score.
In the case of GAACTGGC, the binding signal is -0.218 E-score.
As for ACGTCGGA, the binding signal was -0.00231 E-score.
As to GTAACTAA, the binding signal was -0.101 E-score.
On to ATGTTAGC, for which the binding signal was -0.0438 E-score.
The same measure for CCGAGCCC: -0.00271 E-score.
AGTGTGAT: the binding signal is 0.247 E-score.
Turning to AGGCACAT, the binding signal is -0.208 E-score.
As for ATACAAGG, the binding signal was found to be 0.0753 E-score.
As for CTACATGA, the figure is -0.0304 E-score.
Consider AAGGCAGT, for which the binding signal is -0.2 E-score.
Take GCCGCTAC: the binding signal was -0.19 E-score.
Take CACGGCCA: the binding signal was -0.242 E-score.
With CACAGATA, the binding signal amounted to 0.205 E-score.
Regarding TAGCCTAA, the binding signal is -0.0109 E-score.
In the case of AAAGCTAA, the binding signal is -0.374 E-score.
As for AGAAAAAA, the figure is -0.259 E-score; as for GTGTACCA, 0.112 E-score; as for ATCTCCTG, 0.298 E-score.
The same measure for CGGGCCAC: -0.147 E-score.
As to TTATCGAA, the binding signal was 0.0356 E-score.
Regarding GACTGCGA, the binding signal was -0.0786 E-score.
In the case of ACAGGATA, the binding signal was 0.236 E-score.
As for GGAACTGA, the figure is -0.232 E-score.
The same measure for AGTCGCAC: -0.19 E-score; for AGGTAAGG: -0.125 E-score.
For ATTCTAAA, the binding signal is -0.136 E-score.
Turning to GATTATCA, the binding signal worked out at 0.219 E-score.
Regarding ATTTGTGC, the binding signal is -0.149 E-score.
In the case of ATGCTCCA, the binding signal is 0.0144 E-score.
For the sequence AGGGATCC, the binding signal was determined as 0.386 E-score.
For CGACCTGC, the binding signal was -0.194 E-score.
The same measure for AAACAGAC: -0.326 E-score.
As for CCAGCTGG, the figure is 0.157 E-score; as for AGGCAAGC, -0.336 E-score; as for CCCGCGAA, 0.0489 E-score.
As to GACGGACA, the binding signal is -0.169 E-score.
ACGGTGCG: the binding signal is -0.0248 E-score.
On to CAACTGCC, for which the binding signal is -0.215 E-score.
Take GTACGCCA: the binding signal was -0.0308 E-score.
AACCGAAC: the binding signal was -0.0711 E-score.
Consider AGCAACAC, for which the binding signal turned out to be 0.0896 E-score.
The same measure for CCCGACCG: 0.0499 E-score; for ACACGTCA: -0.119 E-score; for ATACATGC: 0.271 E-score.
Regarding CAATGCTA, the binding signal is -0.0933 E-score.
As to CACCGAAG, the binding signal was -0.0271 E-score.
As to GAATCGCA, the binding signal is -0.0764 E-score.
As for GTAATGGA, the binding signal is 0.0742 E-score.
As for ACTCATTA, the binding signal is -0.141 E-score.
Consider ATAAAATC, for which the binding signal was 0.148 E-score.
For ACCTACGA, the binding signal is -0.0113 E-score.
Take CTCCTAAG: the binding signal is -0.0955 E-score.
On to AGCTCGAC, for which the binding signal is -0.0702 E-score.
As for AAGTGTAC, the figure is 0.0592 E-score; as for ATGGGGGG, -0.00857 E-score.
Take TAGGCCGA: the binding signal was -0.166 E-score.
On to GAGAGTGC, for which the binding signal was -0.171 E-score.
Consider CGACTCCC, for which the binding signal was -0.0209 E-score.
For CGCACATA, the binding signal turned out to be 0.0156 E-score.
As to AATAATGA, the binding signal was -0.0651 E-score.
The same measure for AGACTTAT: -0.017 E-score.
For the sequence GGCTCAAA, the binding signal was -0.0755 E-score.
CGAAAAAA: the binding signal is -0.219 E-score.
Take ATTGTCTA: the binding signal amounted to 0.0709 E-score.
In the case of AGACGCAC, the binding signal is -0.0387 E-score.
On to ACATTGGT, for which the binding signal is -0.193 E-score.
As for CGCGGACG, the figure is -0.252 E-score; as for ACGAGGGG, -0.0487 E-score.
With ATTGACAA, the binding signal was -0.0716 E-score.
Turning to GCTTGGCC, the binding signal was -0.146 E-score.
Consider CAAGTGAG, for which the binding signal was -0.0769 E-score.
As for CAGCGCTA, the binding signal was -0.11 E-score.
In the case of ACTTATAA, the binding signal was -0.0412 E-score.
For the sequence ATTAGCTA, the binding signal stood at 0.112 E-score.
As for AAGCACGT, the figure is -0.108 E-score; as for CGAGCGAA, -0.0247 E-score; as for TATTTCAA, 0.00941 E-score.
For the sequence GTGATGCA, the binding signal stood at 0.0839 E-score.
With CTCTGGCA, the binding signal is -0.166 E-score.
As to ATCGACAT, the binding signal was 0.134 E-score.
For CCGTTTGC, the binding signal was -0.0816 E-score.
For ATTCTCCG, the binding signal was -0.0964 E-score.
As for CAATCGAC, the binding signal is -0.28 E-score.
GACACACA: the binding signal turned out to be 0.0507 E-score.
As to CCAGCCAC, the binding signal is -0.0813 E-score.
As for CATCTAGA, the binding signal was 0.186 E-score.
Take CATCCACG: the binding signal was found to be 0.183 E-score.
Regarding GTCCCGAC, the binding signal is -0.248 E-score.
Consider ATAACCTC, for which the binding signal was 0.0599 E-score.
The same measure for CTTCTAAC: 0.0517 E-score; for ATGCTCAG: -0.1 E-score; for ACCATTTG: -0.143 E-score.
In the case of CGCATCCC, the binding signal worked out at 0.0819 E-score.
For the sequence AGTCGTAG, the binding signal was -0.0981 E-score.
As for ATGGCACA, the figure is -0.226 E-score; as for CTCCTTGC, -0.121 E-score; as for GCAGATTA, 0.177 E-score.
Take ATAGCTGG: the binding signal was 0.0714 E-score.
Regarding TCACCGCA, the binding signal was -0.0496 E-score.
Consider ATATGTAA, for which the binding signal came to 0.0862 E-score.
AGATAGTG: the binding signal came to 0.152 E-score.
Regarding GTACATCA, the binding signal is -0.0869 E-score.
The same measure for GTTTTAAA: -0.121 E-score; for AGGTATGC: 0.0795 E-score; for CCCGGTTA: -0.0155 E-score.
As for GATCGGAC, the figure is 0.248 E-score; as for ACCCTCTC, 0.155 E-score; as for CAATGCCG, -0.155 E-score.
Take CACTGCTG: the binding signal was -0.0892 E-score.
The same measure for CCGTTGTA: 0.0251 E-score; for AGAGCCCG: -0.138 E-score.
With CGAAGCAG, the binding signal was -0.159 E-score.
As for GGATTATA, the figure is 0.362 E-score; as for ATAATGTC, -0.0643 E-score.
Consider CAGAGAGG, for which the binding signal is -0.0343 E-score.
As to AAACACGG, the binding signal is -0.0305 E-score.
With ACAAGTCT, the binding signal was -0.192 E-score.
The same measure for ATAAAGAG: -0.183 E-score; for ATATCACC: 0.463 E-score; for ATTCGCAC: 0.00179 E-score.
In the case of CCGATTTC, the binding signal is -0.268 E-score.
TCACTTAA: the binding signal was 0.0709 E-score.
In the case of ACGAGCCC, the binding signal was 0.0651 E-score.
As for GAAGGAAC, the binding signal is -0.185 E-score.
As for ATCGATGG, the binding signal amounted to 0.185 E-score.
ATAGATCA: the binding signal came out at 0.353 E-score.
As for ATGTTCAA, the binding signal is -0.148 E-score.
ATTAGGGC: the binding signal was -0.16 E-score.
The same measure for AGATCTAT: 0.189 E-score; for CAGTACGG: -0.0329 E-score; for AGTAGCTA: -0.0659 E-score.
The same measure for TCTCAGAA: -0.00945 E-score; for ACACTACC: 0.136 E-score.
In the case of ATGTGGCC, the binding signal is -0.032 E-score.
As for GGGAACTA, the figure is 0.0307 E-score; as for ATGTATAA, 0.154 E-score; as for CCTACGTA, 0.119 E-score.
For the sequence ACGCATTG, the binding signal is -0.0628 E-score.
As to GATCATAC, the binding signal was 0.378 E-score.
Turning to ACATCCAT, the binding signal amounted to 0.0374 E-score.
Consider TCGAGCAA, for which the binding signal is -0.152 E-score.
For the sequence ATACCGAC, the binding signal turned out to be 0.341 E-score.
As for CCTTGACA, the binding signal is -0.0904 E-score.
With GTACATAC, the binding signal was -0.0157 E-score.
Turning to CACCCTTA, the binding signal turned out to be 0.0251 E-score.
TGTGAACA: the binding signal was -0.0218 E-score.
ACGATGGA: the binding signal turned out to be 0.141 E-score.
Turning to AGGAATGG, the binding signal is -0.288 E-score.
On to ATCAGAAG, for which the binding signal was determined as 0.0455 E-score.
For ATCCAGGG, the binding signal turned out to be 0.236 E-score.
As for ATGGCCCC, the figure is -0.0764 E-score; as for GTATATTA, 0.267 E-score; as for GGCGAAGA, -0.119 E-score.
GCAGCTGC: the binding signal is -0.144 E-score.
For the sequence CCATCTCA, the binding signal was determined as 0.164 E-score.
As to CTGGAGAC, the binding signal amounted to 0.0308 E-score.
ACGGCCTA: the binding signal was 0.0736 E-score.
Regarding AATGAGAC, the binding signal worked out at 0.0277 E-score.
